Measured values published in patent publication US20210047394A1 (Hoffmann-La Roche, published 2021).

How the values were obtained:
[1] = target: T1, huVEGF121 (R&D Systems, UK, Cat. No. 298-VS) (human, UniProt P15692-9 27-147); experiment: inhibition of huVEGF121 binding to coated hVEGF-R (ELISA)
T1 construct: domain: VEGF121; also called hVEGF
T1 sequence (looked up): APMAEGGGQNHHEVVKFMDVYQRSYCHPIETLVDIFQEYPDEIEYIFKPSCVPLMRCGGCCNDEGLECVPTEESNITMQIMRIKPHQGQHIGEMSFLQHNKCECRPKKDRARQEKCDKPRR

[2] = target: T2, rhVEGF (R&D Systems Cat. No. 293-VE) (human, UniProt P15692 181-395); experiment: SPR (Biacore T100), antibody captured via anti-hIgG-Fc, VEGF analyte, 25 C
T2 construct: Analyte in the Biacore assays; also called VEGF-A
T2 sequence: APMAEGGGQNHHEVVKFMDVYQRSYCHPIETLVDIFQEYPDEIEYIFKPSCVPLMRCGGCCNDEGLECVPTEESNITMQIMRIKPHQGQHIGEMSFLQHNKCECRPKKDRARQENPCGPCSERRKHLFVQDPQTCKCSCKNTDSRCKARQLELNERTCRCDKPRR

B1: <VEGF-ANG-2> TvAb-2441-bevacizumab-LC08 (bispecific antibody, human IgG1, kappa)
heavy: EVQLVESGGGLVQPGGSLRLSCAASGYTFTNYGMNWVRQAPGKGLEWVGWINTYTGEPTYAADFKRRFTFSLDTSKSTAYLQMNSLRAEDTAVYYCAKYPHYYGSSHWYFDVWGQGTLVTVSS[human IgG1 constant region left out]GGGGSGGGGSGGGGSGGGGSQVQLVESGGGVVQPGGSLRLSCAASGFTFSSYGMHWVRQAPGKCLEWVAVISYDGSNKYYADSVKGRFTISRDNSKNTLYLQMNSLRAEDTAVYYCAKPTLDIYMGYYYGMDVWGQGTTVTVSSGGGGSGGGGSGGGGSGGGGSQPVLTQPPSASGAPGQRVTISCSGFASNIGSNSVNWYQQVPGTAPKLLIYNNDQRPSGVPDRFSGSRSGTSASLAISGLQSEDEADYYCAAWDDSLNGPVFGCGTKLTVL
light: DIQMTQSPSSLSASVGDRVTITCSASQDISNYLNWYQQKPGKAPKVLIYFTSSLHSGVPSRFSGSGSGTDFTLTISSLQPEDFATYYCQQYSTVPWTFGQGTKVEIKRTVAAPSVFIFPPSDEQLKSGTASVVCLLNNFYPREAKVQWKVDNALQSGNSQESVTEQDSKDSTYSLSSTLTLSKADYEKHKVYACEVTHQGLSSPVTKSFNRGEC
notes: Tetravalent; scFv at C-terminus of the heavy chain, (G4S)4 linkers, VH44/VL100 disulfide
B1 gave an IC50 [1] of 2.31 µg/mL and a Kd [2] of 0.34 nM.
